Consider 57 compounds from PubChem BioAssay AID463173 (ICCB-Longwood Screening Facility, Harvard Medical School, 2010).

About 4,300 (8.3%) of roughly 52,000 compounds were called active. No stated cut-off is given here; in the data, active means survival mostly below about 52% (no sharp cut-off); inactive means mostly above about 56%. Some of the results follow.

This assay relates to DeltatarO mutant. The assay is described as follows: growth inhibition of S. aureus wild type versus tarO mutant, primary screen, teichoic acid synthesis inhibitors, RN4220, OD600 (AID 463173). The note with it: OD600, 18 h, active compounds read low, screened at 18.75 µg/mL (by protocol).
Take `Cc1ccc(OCC(=O)Nc2ccc3nc(SCCOc4ccccc4)sc3c2)cc1`: the survival was inactive: 83%.
Take `COc1ccc(NC(=O)Cn2nnc3sc4c(c3c2=O)CCCC4)cc1`: the survival was inactive: 61%.
For `COc1cc2ccccc2cc1C(=O)Nc1cccc(-c2nc3cc(C)ccc3o2)c1C`, the survival was inactive: 55%.
In the case of `Cc1cccc(NC(=O)C2CCCN(S(=O)(=O)c3ccc(Br)s3)C2)c1` (configuration not stated), the survival was inactive: 69%.
For the compound `COc1ccc(NC(=O)CS(=O)CC(=O)Nc2cc(OC)ccc2OC)cc1` (configuration not stated), the survival was inactive: 102%.
Under `Cc1ccc(C2=NC(c3ccccc3)=Nc3ccc(Cl)cc3N2)cc1` stands inactive: 89%.
The result for `CC(C)NC(=O)C1CCN(c2ccc(S(=O)(=O)N3CCOCC3)cc2Cl)CC1` reads inactive: 81%.
On to `COC(=O)c1cc2oc3ccccc3c2n1Cc1c(C)cc(C)cc1C`, for which the survival was inactive: 130%.
`CCc1ccc(NC(=O)CCc2nnc3n(C)c(=O)c4sccc4n23)cc1`: the survival is inactive: 65%.
Turning to `COCCCNC(=O)CSc1nc(-c2ccc(OC)c(OC)c2)[nH]c1-c1ccc(F)cc1`, the survival was inactive: 81%.
In the case of `Cc1cc(C)c2c(=O)cc(C(=O)NCc3ccc(S(N)(=O)=O)cc3)oc2c1`, the survival was inactive: 117%.
For the compound `CC(C)(C)OC(=O)N1CCC(c2c(C(=O)NCc3ccco3)cnn2-c2ccccc2Cl)CC1`, the survival is inactive: 76%.
For `Cc1nn(CCCC(=O)NCc2ccccc2)c(=O)c2cc3sccc3n12`, the survival was inactive: 76%.
On to `CC(=O)c1cc(-c2ccccc2)n(CCC(=O)NC(C)c2ccccc2)c1C` (configuration not stated), for which the survival was inactive: 67%.
For `COC(=O)c1ccccc1NS(=O)(=O)c1ccc2c(c1)CCCN2C(C)=O`, the survival was inactive: 74%.
The result for `CCCC(=O)n1nc(-c2cccnc2)nc1NCc1ccc(OC)cc1` reads inactive: 70%; that for `COc1ccc(C(=O)Nc2cc3c(cc2N2CCCC2)n(C)c(=O)c(=O)n3C)cc1OC`, inactive: 97%.
For `COc1cc(CN2CCc3nc(N4CCN(c5ccccn5)CC4)ncc3C2)cc(OC)c1OC`, the survival was inactive: 89%.
Under `O=C(Nc1ccc(Cl)cc1C(F)(F)F)c1cc(S(=O)(=O)N2CCOCC2)ccc1F` stands inactive: 124%.
As for `CCOc1ccc(S(=O)(=O)n2nc(C)c(S(=O)(=O)N3CCCCC3)c2C)cc1`, the survival is inactive: 89%.
As for `Cc1ccc(CNC(=O)c2c(C)oc3nc(C)nc(N4CCOCC4)c23)cc1`, the survival is inactive: 98%.
Under `Cc1nn(C)c(C)c1N1C(=O)c2cccc3c(Br)ccc(c23)C1=O` stands inactive: 50%; under `CCc1ccc(-n2nc3cc(C)c(NC(=O)c4cc(OC)cc(OC)c4)cc3n2)cc1`, inactive: 68%.
Consider `CC(C)(C)c1ccc(C(=O)NCC(c2cccs2)S(=O)(=O)c2cccs2)cc1` (configuration not stated), for which the survival was inactive: 74%.
In the case of `CCOc1cc(C(=O)Nc2ccc(-c3nc4ccccc4s3)cc2Cl)cc(OCC)c1OCC`, the survival was inactive: 92%.
In the case of `Cc1cccc(C)c1NC(=O)Cn1c(=O)n(Cc2ccc3c(c2)OCO3)c(=O)c2oc3ccccc3c21`, the survival was inactive: 81%.
Regarding `O=C(c1ccccc1F)N(Cc1cccs1)c1ccc(O)cc1`, the survival was inactive: 93%.
As for `COc1ccc(C(=O)Nc2cc(S(=O)(=O)c3ccc(Cl)cc3)c(O)c(C)c2C)cc1`, the survival was inactive: 78%.
Regarding `Fc1ccc(-n2ncc3c(NCCC4=CCCCC4)ncnc32)cc1`, the survival was inactive: 83%.
In the case of `CCOc1ccc(OCC)c(NC(=O)C(NS(=O)(=O)c2cccs2)c2ccccc2)c1` (configuration not stated), the survival was inactive: 66%.
Take `COc1ccccc1NC(=O)Cn1nc(-c2ccc(C)cc2)c2c(c1=O)CCCC2`: the survival is inactive: 42%.
In the case of `Nc1c(-c2nc(-c3ccccc3)no2)nnn1CC(=O)Nc1cccc(F)c1`, the survival was inactive: 84%.
For `CCOc1cc(-c2ccc(OC(=O)c3ccc(C)cc3)c(OC)c2)cc(=O)c2c(C)oc(C)c12`, the survival is inactive: 99%.
As for `CCN(CC)CCN(C(=O)c1ccco1)c1nc2cc(C)cc(C)c2s1`, the survival was inactive: 81%.
On to `CCCN(CCC)S(=O)(=O)c1ccc(C(=O)Nc2cccc(-c3nc4ccccc4[nH]3)c2)cc1`, for which the survival is inactive: 99%.
As to `CC(=O)c1ccc(NC(=O)CN(C)S(=O)(=O)c2cc3c(cc2Cl)NC(=O)CO3)cc1`, the survival is inactive: 72%.
With `Cc1ccc(NCc2cccn2-c2nnc(N3CCC(C(=O)NCCC(C)C)CC3)s2)cc1`, the survival was inactive: 76%.
Consider `N#Cc1c(-n2ncnc2-c2ccccc2C(F)(F)F)sc2c1CCCCC2`, for which the survival is active: 6%.
With `CCOC(=O)c1ccc(Nc2c(-c3cccc(O)c3)nc3nc[nH]n23)cc1`, the survival was active: 46%.
For `Cc1cccc(CSCc2ccc(C(=O)NCCc3ccccc3)o2)c1`, the survival is inactive: 87%.
For `Cc1c(N=Cc2cccnc2)c(=O)n(-c2ccccc2)n1C`, the survival is inactive: 71%.
Regarding `COc1ccc(-c2ccc(CCC(=O)O)[nH]2)cc1`, the survival is inactive: 99%.
For `O=C(c1cc2ccccc2oc1=O)N1CCN(c2ccc(F)cc2)CC1`, the survival was inactive: 66%.
For `Cc1cc(C)c2c(CC(=O)Nc3ccc(S(=O)(=O)N4CCCCC4)cc3)coc2c1`, the survival is inactive: 76%.
Under `CCOC(=O)c1ccc(NC(=O)Cn2c(=O)cc(C(F)(F)F)c3c(C)nn(C)c32)cc1` stands inactive: 95%; under `Cc1ccc(C(=O)Nc2ccc(S(=O)(=O)Nc3onc(C)c3C)cc2)cc1`, inactive: 77%.
Under `Cc1ccc(Cl)cc1N1CCN(CCCNC(=O)C2COc3ccccc3C2)CC1` (configuration not stated) stands inactive: 83%; under `COc1ccc(-c2cc(C(=O)Nc3cccc(O)c3)on2)cc1OC`, inactive: 80%.
With `Fc1ccc(CSc2nc(NCc3ccccc3)c3ccccc3n2)cc1`, the survival was inactive: 91%.
With `CCc1ccc2nc3sc(C(N)=O)c(N)c3cc2c1`, the survival is inactive: 109%.
Regarding `COc1ccc(CNC(=O)Cn2c(=O)cc(C)c3c(C)nn(-c4cccc(Cl)c4C)c32)cc1`, the survival was inactive: 95%.
For the compound `O=c1[nH]nc(-c2ccccc2)c2cc3c(=O)[nH]nc(-c4ccccc4)c3cc12`, the survival is inactive: 100%.
For `O=C(Nc1ccc(NC(=O)C2CC2)nc1)c1cccc(F)c1`, the survival was inactive: 77%.
Turning to `COc1cc(NC(=O)CNS(=O)(=O)c2cccs2)cc(OC)c1OC`, the survival is inactive: 96%.
Regarding `O=C(NCc1cccs1)c1ccc(CSc2nc3ccncc3n2Cc2ccccc2)cc1`, the survival is inactive: 110%.
Take `COc1cccc(C2=NS(=O)(=O)N(C)C(C(=O)Nc3ccccc3SC)=C2)c1`: the survival was inactive: 85%.
Regarding `CCOc1ccc(S(=O)(=O)NCCc2csc3nc(-c4ccc(F)cc4)nn23)cc1`, the survival was inactive: 97%.
